Source: article PMC10668032
Some of the results follow. At the low end of the ranking, values are background and their order means little.

Target: SIX1 homeodomain (reference allele) (UniProt Q15475)
Test: universal protein binding microarray
Details: Universal all-10-mer PBM (8x60K, AMADID 030236), 300 nM GST-tagged protein, Alexa Fluor 488 anti-GST; buffer, salt, pH and temperature not stated; high values mean tight binding; most listed sequences are background and not binding sites; double strand, one strand shown

Sequence | binding signal [E-score]
AATTCGCG | -0.0341
CTATGTAC | 0.00365
AGCTTACT | -0.18
ATGGTGTC | 0.435
AAGTATTA | 0.254
GAACTGTA | -0.169
ACGAGACT | -0.0997
AATTCCAC | 0.0293
CCTCGTGC | -0.117
AATGGAAC | -0.092
AACGGTAC | 0.0211
GAACTGCA | -0.164
CCATTTAA | -0.0725
ATCTCTAG | 0.185
AGTATCAC | 0.464
ACAAGTGC | -0.294
GGGTGTAC | 0.303
ACTTCACG | -0.246
CGCCTAGA | 0.112
ATCAAAAG | 0.0854
AGTTGATG | -0.046
CCCCCCAA | -0.00617
ACCAGTGA | 0.127
GAGCGACA | -0.161
AGAGGCCG | -0.261

Sequence | binding signal [E-score]
GTCACCAC | -0.246
ACGCCTGC | -0.0845
CTAAATTA | -0.135
CCGTGATA | 0.348
ACCAAGTA | 0.057
AGGTTACG | -0.217
AATGTTAA | -0.168
AGAGAACC | -0.0686
ATGAAAGA | -0.158
CTCGGCTA | 0.026
CCTGGTAA | -0.177
ATTCGAAA | -0.204
CACGTTAG | -0.048
GCTTTGCA | -0.0866
CCTTTAAA | -0.0777
CCCTTGCA | -0.0987
ATCGCTAC | 0.115
CCCCTAGA | 0.137
ACACCAGG | 0.339
AAATATCC | 0.271
CCTGATTA | 0.109
GCGATTGA | -0.146
CGCGAACC | -0.151
AGCGGACA | -0.0991
ACTGAAGG | -0.142

Sequence | binding signal [E-score]
AACGACCC | -0.0127
CAGCAACA | -0.0104
GACTAGTA | -0.0388
ACCACTCG | 0.14
CTTGTCGA | 0.0441
GCTCATAA | 0.0557
CAGCTCAC | 0.00239
AAGCACTT | -0.346
GCCACACA | -0.161
ATCGTATG | 0.132
GTAATACA | 0.14
TAAACTAA | 0.0847
AATACCAA | 0.278
CCACCATA | 0.0922
AAGAGATC | 0.338
GAAGAAGA | 0.0245
GTCCCTCA | -0.121
CCGACTAA | -0.0298
ACCGGGGA | -0.0595
CACGCTGG | 0.0173
CACATATG | -0.00899
AGGCTGTA | 0.11
GTATCTCA | 0.392
GGCGGTCA | -0.168
TCCTCAGA | 0.0885

Sequence | binding signal [E-score]
ACATGGTG | 0.215
GGATGGTA | 0.214
CGTGGGGA | 0.0959
ACCGTTGA | 0.0961
GTTGCACA | -0.176
AACCACTG | 0.052
ATGGGGCA | 0.0228
CTGGAGCA | -0.108
CATTTTCG | -0.102
ATTGCTGA | -0.0798
AGGGTCAT | -0.0229
ACCTATTA | -0.0821
CAGGCCGC | -0.284
AGACTGAC | -0.0877
TCGCTTCA | -0.12
GAGGTTAC | -0.112
CCAACCAG | -0.0849
CGTTGGCA | -0.0301
AGTGTGCG | -0.228
CTTAGGGC | -0.0777
GACGGGGC | 0.0379
CAGAGTGC | -0.351
GAAGTCTA | -0.147
TAACGATA | 0.315
AGACTGGC | -0.246

Sequence | binding signal [E-score]
GCTGACCC | -0.185
ACTTTACG | 0.0199
CGATGGCC | -0.222
ATCCCTTC | 0.303
AGTTTTCA | -0.276
GAACTCGA | -0.279
AGCAATCA | -0.153
AATAGACT | -0.227
TAGTGAAA | -0.0253
CTAAGGTC | -0.264
CGGTGCTC | -0.0105
ACTTGCAA | -0.00632
ATCGATAC | 0.446
GAACATGA | -0.00765
AGTGGGAC | -0.187
ATTACTCC | 0.126
CGCGTTTA | -0.127
ACTATATG | 0.1
GAGTCGGA | -0.0206
CTCAGTTC | -0.181
CACTAGAC | -0.0493
AAGTTAAA | -0.137
CAGGCCCG | -0.0995
CAATTATC | 0.0355
AACGGTGT | 0.253

Sequence | binding signal [E-score]
CATGATAA | 0.0701
GTATTCAC | 0.147
CAGCGCTC | -0.242
ATGCCAGC | -0.0823
CTTAGAGA | 0.0033
AGCCTTTC | -0.168
CTGGCCTA | -0.192
ATACATAA | 0.165
CGGTTGTC | -0.157
GTTATGCA | -0.173
ACCAAAGT | -0.125
ACCATATG | 0.128
ACTTTTGG | -0.232
ACATTGGA | 0.125
AACTTGAA | -0.0612
CCCAGGAG | 0.076
CAGGCAGC | -0.173
GGTGAGCA | 0.0318
AAGTGTGC | -0.0528
AAGACACT | 0.0292
ACAAGGTG | 0.0108
CAAGATGC | 0.0911
ACGAGGCC | -0.229
ATTCCAAT | 0.0114
ACTGCTGA | -0.124

Sequence | binding signal [E-score]
GGAGCTTA | -0.0968
GCCCTGAC | -0.148
CTCATGGA | 0.0353
CACCTCTC | 0.00349
AAATCCGC | 0.0214
GTACTGTA | -0.176
GGATTGCC | 0.0912
CGGATCCG | 0.417
AGTACCTA | -0.0422
CCAGAGGA | -0.0169
ACTGTGTG | 0.0598
CAAGAACC | -0.165
CCGCTAAC | -0.103
GATAAGGA | 0.183
TAAGTGGA | -0.0381
TCAACGCA | -0.11
ACTCTCGG | -0.0476
AGAAGGAG | 0.00823
AAACAGAT | 0.111
CCTTACAC | 0.119
ACGCATCA | 0.0402
CAGGGGCC | -0.176
